# Data as given in ChEMBL document CHEMBL4888484, “Replenishing the malaria drug discovery pipeline: Screening and hit evaluation of the MMV Hit Generation Library 1 (HGL1) against asexual blood stage Plasmodium falciparum ,using a nano luciferase reporter read-out” (2022).
# Screen size: about 150,000 compounds; about 540 (0.36%) showed an effect of 50% or more. This is one part of the list.
# Tested on: Plasmodium falciparum
# Experiment: Primary screen in NF54 nanoGlo assay, in single point, at 2uM, 72h; a lower Z score goes with more inhibition
# Type: functional, Erythrocyte
# Conditions: timepoint 72 hour
Structure (SMILES),% Inhibition [%],Z score
O=S(=O)(Nc1cccc(/C=C/c2ccncc2)c1)c1ccc2c(c1)OCCO2,-13,1.54
Cc1cc(NC(=O)c2cnn3c2C[C@@H](C)CC3)c[nH]c1=O,-20,2.56
Cc1ncc2c(c1-c1noc(-c3ccco3)n1)CCN(C(=O)[C@@H]1CCCO1)C2,-6,0.72
Cc1cc(C)n(-c2nc3c(c(=O)n2CC(=O)NCc2ccc(F)cc2)CCC3)n1,-11,1.46
CCCC1CCC(c2ccc(OC(=O)c3cccc(C(=O)OC)n3)cc2)CC1 (stereo not drawn),-10,1.93
CCc1cc(NC[C@H](O)c2cncs2)ncn1,-12,2.32
O=c1[nH]cccc1-c1cc(NCc2cccnc2)nc2[nH]ccc12,-6,1.05
COc1cc(OC)nc(C(=O)N2CCCC[C@@]23CCOC3)n1,-6,0.96
CC(=O)Nc1cc(C(=O)NCc2scnc2-c2ccccc2)cc2ncn(CCc3ccccn3)c12,5,-0.72
C=C[C@H]1OCC[C@@H]1CN1C(=O)N(C)C(C)(C)C1=O,-15,2.13
O=C(N[C@H]1CCn2nccc2C1)c1ccc(OC(F)F)cn1,-8,0.97
Cn1nnc(NS(=O)(=O)c2ccc(O)cc2)n1,15,-2.26
Cc1nc2cc(C(=O)N(C)[C@H]3CCNC3=O)ccc2o1,2,-0.46
CCC(C)C(NS(=O)(=O)c1cccc(C(F)(F)F)c1)C(=O)NCCc1ccccn1 (stereo not drawn),-10,1.31
O=C1NCCN2CC3(CCN(S(=O)(=O)Cc4ccccc4F)CC3)C[C@@H]12,3,-0.64
CCNC(=O)Nc1nnc(CC(C)C)s1,5,-0.63
Cn1nnnc1NC(=O)c1c(Cl)cccc1OCC1CC1,3,-0.52
Cc1ccc(N2CC(C(=O)NC3CCc4nccn4C3)CC2=O)cc1 (stereo not drawn),-7,1.45
C[C@@H](CCn1cccn1)NCC(=O)Nc1ccc(Cl)cc1F,2,-0.38
Cc1ccc(C(C)NC(=O)C2COc3ccccc3O2)o1 (stereo not drawn),-2,0.17
CN1CCCC1C(=O)NCCCC1CCCCC1O (stereo not drawn),10,-1.6
C[C@@H]1CN(C(=O)NCc2cn(C)nc2C(F)(F)F)C[C@H]1CO,1,-0.1
CCOc1ccc(CN(CCO)CCO)cc1C(=O)OC,-8,1.08
CC(CC#N)NS(=O)(=O)c1cnc(N2CCCC2C)c(Cl)c1 (stereo not drawn),-1,0.17
Cc1nc(N)nc(C(F)(F)F)c1Br,-1,0.16
CCCNC(=O)Cc1ccc(N(Cc2ccccc2C)C(=O)c2cccs2)cc1,-4,0.5
CCN1CC(C)C(NC(=O)NC[C@@H]2Cc3ccccc3CO2)C1 (stereo partly drawn),-4,0.71

Structure (SMILES),% Inhibition [%],Z score
CCN(Cc1ccccc1)C(=O)c1cc(S(=O)(=O)N2CCOCC2)ccc1N1CCCC1,-6,0.54
Cc1cccc(CC2CN(C(=O)Cc3ccc(C(=O)O)cc3)C2)c1,-9,1.39
N#Cc1ccccc1Oc1ccc2c(c1)CCC(=O)N2,-4,0.53
CCc1nccc(CN(C)[C@@H](CC)c2ccccc2)n1,-4,0.43
C[C@H](O)CNS(=O)(=O)[C@H]1C[C@@H]1c1ccc(Br)cc1,3,-0.36
COc1ccc(C(=O)N2CCC3(CCCCC3)C2)nn1,-5,0.41
CN(CC(=O)NC[C@H]1CCCc2ccc(C(=O)O)cc21)C1CCC1,-14,2.79
Cc1noc(-c2ccc(S(=O)(=O)N3C[C@H]4CC[C@@H](C3)N(C)C4=O)o2)c1C,3,-0.39
Cc1ccn(-c2cccc(NC(=O)N[C@@H]3C=C[C@H](CO)C3)c2)n1,2,-0.2
O=C1NC(=O)c2ccc3c4c(ccc1c24)C(=O)N(c1ccccc1)C3=O,73,-8.98
Cc1cc2c(N3CCC(C(=O)Nc4ccc(Cl)cc4C)CC3)nccc2s1,1,-0.24
CCNc1ncc(C(=O)N2CCCCCCC2)cn1,1,-0.16
O=C(N[C@@H](CCO)c1ccccc1F)c1nc(C2CC2)ncc1Br,-9,1.7
CNC(=O)C1(N2CCC[C@H]2C(=O)N2CC[C@@H](O)C2)CCCCC1,-6,0.86
CC(=O)N1CCCN(S(=O)(=O)Cc2ccccc2Cl)CCNC(=O)[C@@H]2CCC[C@@H]21,45,-5.08
COc1cccc(-c2nc3ccc(-c4cccc(C)c4)cn3c2CN2CCN(S(=O)(=O)c3ccc(F)cc3OC)CC2)c1,-1,0.08
Cc1cc(O)nc2cc(NC(=O)CCn3cnnn3)ccc12,-2,0.34
CC(C)(C(=O)N1CCCc2cc[nH]c(=O)c21)c1cccc(Cl)c1,3,-0.55
O=C(c1csc(S(=O)(=O)N2CCCCCC2)c1)N1CCCCC1,-6,0.63
Cc1ccc(O[C@H]2CCCN(S(=O)(=O)c3ccc(C#N)cc3)C2)nn1,-33,3.77
Cc1c(C(F)(F)F)nn(C)c1NC(=O)[C@@H]1COc2ccccc2O1,30,-3.98
CCc1ccc(CNC(=O)[C@]2(C)COCc3nnc(C(C)C)n32)cc1,-12,1.45
C[C@@H](CC(N)=O)NC(=O)CCc1ccccc1,-2,0.44
CN(C)c1cc(C(=O)N2CC(C)(C)O[C@](C)(C(F)(F)F)C2)ccn1,-5,0.95
O=C(CNC(=O)OCc1ccccc1)NCc1cccnc1-c1cccnc1,-6,0.91
Cc1ccc(-c2noc(-c3ccc(CS(=O)(=O)c4ccc(C)cc4)o3)n2)cc1,-11,1.63
Cc1cc(C(=O)Nc2cccc(CCN3CC(C)C(C)C3)c2)nn1C (stereo not drawn),-6,0.56
